The record followed here is PubChem BioAssay AID1508623 (National Center for Advancing Translational Sciences (NCATS), 2021).

In all, about 48,000 compounds went through this assay and about 450 (0.94%) were called active. Inconclusive results (about 19%) are left out. The call rests on the fitted dose curve; in most records, active means well fitted inhibition curve with a large enough effect; inconclusive means small, poorly fitted or top-dose-only effect; inactive means no such curve, though single readings can be large or run the other way. The list shows a part of the results.

The assay can be described thus: Primary qHTS for Identification of Small Molecule Inhibitors of Huntingtin Promoter Activity. Further: nearly all actives have a fitted effect of over 50% in size. As to conditions: HEK293 HTT promoter firefly luciferase reporter (activity 0% = vehicle and -100% = no light), 24 h; series mostly up to 57.5 µM; activity change, negative = inhibition: at the top concentration. In outline: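 Luminescence was read after Dual-Glo reagent and a 10 min room-temperature incubation. Values were normalized to vehicle (0% activity) and zero RLU (-100% activity). Reporter HEK293 cells had been exposed to compounds (up to 57.5 uM final) for 24 h.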
On the technique in general: In qHTS, concentration-response curves come from the screen itself.
`O=C(CSc1nc2c(c(=O)[nH]1)CN(Cc1ccc3c(c1)OCO3)CC2)Nc1cccc(Cl)c1`: the “activity change, negative = inhibition” value is inactive: -26.8%.
`CCCC(=O)Nc1nnc2n1CCS2`: the “activity change, negative = inhibition” value is inactive: 6.43%.
On to `Cc1nc2c(c(C)nn2-c2ccccc2)c(C)c1CCC(=O)NCCc1ccccc1`, for which the “activity change, negative = inhibition” value is inactive: -1.49%.
As to `Cn1nnc2c(NCc3ccccc3Cl)ncnc21`, the “activity change, negative = inhibition” value was inactive: -3.19%.
As for `CCOC(=O)c1noc2ncnc(N3CCC(C)CC3)c12`, the figure is inactive: -21.5%; as for `CCOc1ccc(Oc2nc(NC)nc(N3CCOCC3)n2)nn1`, inactive: 16.9%; as for `COc1ccc(CC(=O)NCc2nc3cccnc3n2Cc2ccc(C)cc2)cc1OC`, inactive: -13.8%.
As for `Cc1cccc(Cn2cc3c(=O)n(CC(=O)Nc4ccc(C)c(F)c4)nc-3c3cc(F)ccc32)c1`, the figure is inactive: -3.78%.
For `Cc1ccc(Cn2c(=O)n(CCCC(=O)NCc3ccccc3Cl)c(=O)c3ccccc32)cc1` the value was inactive: -5.08%; for `COc1ccc(OC)c(NC(=O)c2c(NCc3cccs3)sc3c2CCCC3)c1`, inactive: -22.6%; for `COC(=O)c1cnc(N2CCN(c3ccccc3F)CC2)c2ccccc12`, inactive: 3.4%.
Take `Cc1ccc(NC(=O)C2CCN(c3nc4ccccc4[nH]3)CC2)c(C)c1`: the “activity change, negative = inhibition” value is inactive: 6.9%.
For `CCc1ccccc1NC(=O)c1cc(S(=O)(=O)N2CCCC2)cn1C` the value was inactive: -2.99%; for `Cc1cccc(N2CCN(C(=O)CCc3c(C)nc4ncnn4c3C)CC2)c1C`, inactive: -26.7%; for `COc1ccccc1NC(=O)NCCN1CCN(c2cccc(Cl)c2)CC1`, inactive: -10.7%.
For `CC(C)c1cccc(C(C)C)c1NC1=NS(=O)(=O)c2ccccc21` the value was inactive: -24.4%; for `COc1ccc(OC)c(NC(=O)CN2C(=O)COc3ccc(S(=O)(=O)NC4CCCC4)cc32)c1`, inactive: -21%; for `CN(CC(=O)Nc1cccc(C(F)(F)F)c1)S(=O)(=O)c1cccs1`, inactive: -10.5%.
For `CCOc1ccc(S(=O)(=O)Nc2ccc3c(c2)N(C(C)=O)CCC3)cc1` the value was inactive: -24.4%; for `CCOc1ccccc1NC(=O)c1cc2c(=O)oc3ccccc3c2s1`, inactive: 7.13%.
For `Cc1ccc(/C=C/c2nc3ccccc3[nH]2)cc1`, the “activity change, negative = inhibition” value was inactive: -68%.
As for `CCc1ccc(NC(=O)CCS(=O)(=O)c2ccc3c(c2)n(C)c(=O)c(=O)n3C)cc1`, the figure is inactive: -14.9%; as for `CCC(Cn1nnc2ccccc2c1=O)NC(=O)Nc1ccc(C)c(C)c1` (stereo not drawn), inactive: -0.0854%.
As to `COCCCNC(=O)CSc1nc2cc(OC)c(OC)cc2c2nc(-c3ccccc3)nn12`, the “activity change, negative = inhibition” value was inactive: 0.879%.
As for `CS(=O)(=O)CCC(C(=O)Nc1cccc(C(F)(F)F)c1)N1Cc2ccccc2C1=O` (stereo not drawn), the figure is inactive: -24.5%; as for `O=C(c1ccco1)c1cn(CCOc2ccc(F)cc2)c2ccccc12`, inactive: -10.6%.
`Cc1ccc(OCc2nc3ccccc3n2CCOc2ccc(Cl)cc2)cc1`: the “activity change, negative = inhibition” value was inactive: -22.2%.
As for `Cc1ccc(-c2nc(SCC(=O)NCc3ccco3)c3c(=O)n(C)c(=O)n(C)c3n2)cc1`, the figure is inactive: -2.65%.
As to `CC(C)c1ccc(NC(=O)Cn2c(=O)n(CCc3ccccc3)c(=O)c3ccccc32)cc1`, the “activity change, negative = inhibition” value was inactive: -6.31%.
For `CCc1cccc(CC)c1NC(=O)CN1C(=O)C(=O)c2ccccc21` the value was inactive: -11%; for `Cc1c(Cn2ccnc2)c2ccccc2n1CCC(=O)O`, inactive: 8.75%; for `Cc1ccc(NC(=O)CC(C)S(=O)(=O)c2ccc3c(c2)NC(=O)CO3)cc1Cl` (stereo not drawn), inactive: 6.67%.
With `CCc1ccc(NC(=O)C(CC)n2c(=O)c(C(F)(F)F)nc3ccccc32)cc1` (stereo not drawn), the “activity change, negative = inhibition” value was inactive: -9.08%.
For `Cc1nc2nc(SCC(=O)NCc3ccccc3Cl)nn2c(C)c1Cc1ccccc1` the value was inactive: -28%; for `CCc1nc(-c2cc(S(=O)(=O)N3CCN(c4ccccc4OC)CC3)ccc2OC)no1`, inactive: -21.1%; for `COc1cc(Cl)c(C)cc1Nc1ncnc2c1nc1n2CCCC1`, inactive: 12.5%.
As for `CCOC(=O)Cn1c(=O)c2c(nc3n2CCN3c2ccc(CC)cc2)n(C)c1=O`, the figure is inactive: -2.62%; as for `COc1ccc(Cl)cc1NC(=O)CN1C(=O)COc2ccc(S(=O)(=O)NC3CCCC3)cc21`, inactive: -0.975%.
For `Cc1ccc(Nc2nn3c(=O)c4cc5c(cc4nc3s2)OCO5)cc1Cl` the value was inactive: -6.48%; for `CCCCN(CC)CCNC(=O)Cn1cc2c(n1)-c1c(oc(C(=O)N3CCCC3)c1C)CC2`, inactive: -0.553%; for `CN(C(=O)CSc1cn(CC(=O)N2CCOCC2)c2ccccc12)c1ccccc1`, inactive: 9.74%.
In the case of `CC(=O)N1CCCc2cc(S(=O)(=O)N3CCC(C(=O)NCc4cccc(C)c4)CC3)ccc21`, the “activity change, negative = inhibition” value is inactive: -25.6%.
For `COc1cccc(Cn2c(=O)n(Cc3ccco3)c(=O)c3oc4ccccc4c32)c1`, the “activity change, negative = inhibition” value is inactive: -1.05%.
On to `CCCOc1cccc(C(=O)N(Cc2ccc(C)o2)C2CCS(=O)(=O)C2)c1` (stereo not drawn), for which the “activity change, negative = inhibition” value is inactive: -16.1%.
For `CC(=O)Nc1ccc(NC(=O)CSc2nccn2C)cc1` the value was inactive: -16.4%; for `COCCNc1sc(S(=O)(=O)c2ccc(C)cc2)nc1S(=O)(=O)c1ccc(C)cc1`, inactive: -4.74%; for `N#Cc1ccc(C(c2ccc(C#N)cc2)n2cncn2)cc1`, inactive: -13.5%.
As for `CCOC(=O)c1cc2c(=O)n3ccccc3nc2n(CC(C)C)c1=NC(=O)c1c(-c2c(F)cccc2Cl)noc1C`, the figure is inactive: -4.81%; as for `CCCN(C(=O)c1noc2c1COc1ccc(C)cc1-2)c1ccc(Cl)c(Cl)c1`, inactive: -13.8%; as for `COC(=O)c1ccccc1NC(=O)c1c(NC(=O)c2ccco2)sc2c1CCC(C(C)(C)C)C2` (stereo not drawn), inactive: -29.1% [at 11.5 µM].
For `COc1ccc(Cn2c(C(=O)O)c(CNCCc3cccs3)c3ccc(C)cc32)cc1` the value was inactive: -19.5%; for `COc1ccccc1CNC(=O)c1ccc2c(c1)N(Cc1cccc(Cl)c1)C(=O)c1ccccc1S2(=O)=O`, inactive: -11.6%; for `Cc1ccc(Cn2c(C(=O)O)c(CNC3CCCCCC3)c3ccc(C)cc32)cc1`, inactive: -2.9%.
As for `CC(=O)c1ccc(NC(=O)Cn2c(=O)c3cccn3c3ccccc32)cc1`, the “activity change, negative = inhibition” value is inactive: -7.06%.
On to `Cc1ccc(NC(=O)Cn2c(=O)n(CCC(=O)N3CCc4ccccc4C3)c(=O)c3ccccc32)cc1`, for which the “activity change, negative = inhibition” value is inactive: -9.59%.
`Cc1oc2ncn(CC(C)C)c(=O)c2c1C(=O)Nc1cc(F)ccc1F`: the “activity change, negative = inhibition” value is inactive: 0%.
For `COc1ccc(-n2nc3c(N4CCCC(C(=O)NCc5cccc(F)c5)C4)nnc(C)c3c2C)cc1` (stereo not drawn) the value was inactive: -29%; for `O=C(NN1CCCC1)NS(=O)(=O)c1ccc(Cl)cc1`, inactive: 0.893%.
For `Cc1ccc(C)c(OCCn2cc(C(=O)c3ccco3)c3ccccc32)c1` the value was inactive: -3.04%; for `CCn1c(CNC(=O)C23CC4CC(CC(C4)C2)C3)nnc1SCC(=O)Nc1ccccc1`, inactive: -23.3%.
Consider `COc1c2occc2cc2ccc(=O)oc12`, for which the activity change, negative = inhibition result was “inactive”.
For `Cc1oc2ncn(C)c(=O)c2c1C(=O)N1CCN(c2ccccc2)CC1` the value was inactive: 28.4%; for `O=C(Oc1ccc(F)cc1)c1nc(SCc2ccccc2F)ncc1Cl`, inactive: -5.58%.
